# Test results taken from the supplement of paper PMC4604168 (melanoma cell lines).
# The list shows a part of the results. Most values come without repeats; read them as rough.
# Tests used:
# Assay in all cases: cell count relative to DMSO control; melanoma cells; higher = more viable cells
# Conditions in all cases: library dose: low library concentration; 72 h
# WM115 = system: WM115
# WM1716 = system: WM1716
# WM1745 = system: WM1745
# WM3526 = system: WM3526
# WM3619 = system: WM3619
# WM451Lu = system: WM451Lu
# 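Note: cell number obtained by counting DAPI-stained nuclei in high-throughput microscope images with image analysis software, screen run in 1,536-well plates.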
Structure (SMILES),cell count (WM115) [%],cell count (WM1716) [%],cell count (WM1745) [%],cell count (WM3526) [%],cell count (WM3619) [%],cell count (WM451Lu) [%]
"Cc1cn(-c2cc(NC(=O)c3ccc(C)c(Nc4nccc(-c5cccnc5)n4)c3)cc(C(F)(F)F)c2)cn1 [nilotinib] + CN(c1ncccc1CNc1nc(Nc2ccc3c(c2)CC(=O)N3)ncc1C(F)(F)F)S(C)(=O)=O [PF562271] (first compound 0.2 µM, partner dose 0.08 µM)",94.5,87.7,63.9,101,126,92.1
"Cc1cn(-c2cc(NC(=O)c3ccc(C)c(Nc4nccc(-c5cccnc5)n4)c3)cc(C(F)(F)F)c2)cn1 [nilotinib] + O=C(Nc1ccccc1)c1cc([N+](=O)[O-])ccc1Cl [GW9662] (first compound 0.2 µM, partner dose 2 µM)",97,101,75.8,101,99.5,114
"Cc1cc(Nc2cc(N3CCN(C)CC3)nc(/C=C/c3ccccc3)n2)n[nH]1 + CC(C)(C)c1cnc(CSc2cnc(NC(=O)C3CCNCC3)s2)o1 [SNS-032] (first compound 0.04 µM, partner dose 0.01 µM)",85.2,84.1,89,90.9,80.5,110
"CC(C)C[C@H](NC(=O)[C@H](Cc1ccccc1)NC(=O)c1cnccn1)B(O)O [Bortezomib] + c1cc(-c2cnn3cc(-c4ccc(OCCN5CCCCC5)cc4)cnc23)ccn1 [Dorsomorphin] (first compound 0.001 µM, partner dose 0.4 µM)",88.1,28.2,58.7,93.8,15.7,83.8
"CC(C)C[C@H](NC(=O)[C@H](Cc1ccccc1)NC(=O)c1cnccn1)B(O)O [Bortezomib] + CN1CCN(c2ccc3nc(-c4c(N)c5c(F)cccc5[nH]c4=O)[nH]c3c2)CC1 [Dovitinib] (first compound 0.001 µM, partner dose 0.1 µM)",90.1,19.5,59.9,64.9,10.3,56.2
"CC(C)C[C@H](NC(=O)[C@H](Cc1ccccc1)NC(=O)c1cnccn1)B(O)O [Bortezomib] + C[C@]1(c2nc3c(C(N)=O)cccc3[nH]2)CCCN1 [Veliparib] (first compound 0.001 µM, partner dose 1.4 µM)",74.3,50.3,49.6,102,13.5,75.6
"Cc1cc(Nc2cc(N3CCN(C)CC3)nc(/C=C/c3ccccc3)n2)n[nH]1 + O=C(O)c1ccc2c(c1)nc(Nc1cccc(Cl)c1)c1ccncc12 [CX4945] (first compound 0.04 µM, partner dose 0.4 µM)",99.5,92.2,85.3,91.6,106,84.1
"COc1ccc(C2=N[C@@H](c3ccc(Cl)cc3)[C@@H](c3ccc(Cl)cc3)N2C(=O)N2CCNC(=O)C2)c(OC(C)C)c1 [Nutlin-3] + O=C(O)C(=O)Nc1sc2c(c1C(=O)O)CCNC2 [TCS401] (first compound 0.1 µM, partner dose 1.66667 µM)",92.6,96.8,88.9,90.4,85.4,67.8
"COc1ccc(C2=N[C@@H](c3ccc(Cl)cc3)[C@@H](c3ccc(Cl)cc3)N2C(=O)N2CCNC(=O)C2)c(OC(C)C)c1 [Nutlin-3] + COc1ccc(Cl)c(Nc2nc3ccccc3nc2NS(=O)(=O)c2cccc(NC(=O)C(C)(C)N)c2)c1 [XL147] (first compound 0.1 µM, partner dose 0.8 µM)",95.3,94.3,107,119,88.6,110
"Cc1cc(Nc2cc(N3CCN(C)CC3)nc(/C=C/c3ccccc3)n2)n[nH]1 + Cn1c(Nc2ccc(C(F)(F)F)cc2)nc2cc(Oc3ccnc(-c4ncc(C(F)(F)F)[nH]4)c3)ccc21 [CHIR265] (first compound 0.04 µM, partner dose 0.08 µM)",50,77.4,79.4,57.9,72.9,96.1
"Cn1c(=O)n(-c2ccc(C(C)(C)C#N)cc2)c2c3cc(-c4cnc5ccccc5c4)ccc3ncc21 + Cc1nc(Nc2ncc(C(=O)Nc3c(C)cccc3Cl)s2)cc(N2CCN(CCO)CC2)n1 [dasatanib] (first compound 0.004 µM, partner dose 0.004 µM)",74.4,76,77.3,105,87.9,93.6
"COc1ccc(C2=N[C@@H](c3ccc(Cl)cc3)[C@@H](c3ccc(Cl)cc3)N2C(=O)N2CCNC(=O)C2)c(OC(C)C)c1 [Nutlin-3] + N#Cc1c(O)c2c(-c3ccc(-c4ccccc4O)cc3)csc2[nH]c1=O [A769662] (first compound 0.1 µM, partner dose 2 µM)",96.1,96.3,90,103,132,100
"COc1ccc(C2=N[C@@H](c3ccc(Cl)cc3)[C@@H](c3ccc(Cl)cc3)N2C(=O)N2CCNC(=O)C2)c(OC(C)C)c1 [Nutlin-3] + OCCn1cc(-c2cnc3nnn(Cc4ccc5ncccc5c4)c3n2)cn1 [PF04217903] (first compound 0.1 µM, partner dose 1 µM)",94.8,86.9,107,115,90.3,105
"CC(C)C[C@H](NC(=O)[C@H](Cc1ccccc1)NC(=O)c1cnccn1)B(O)O [Bortezomib] + O=C(O)c1ccc2c(c1)nc(Nc1cccc(Cl)c1)c1ccncc12 [CX4945] (first compound 0.001 µM, partner dose 0.4 µM)",98.7,29.2,65.2,69.7,13,82.5
"Cn1c(=O)n(-c2ccc(C(C)(C)C#N)cc2)c2c3cc(-c4cnc5ccccc5c4)ccc3ncc21 + Oc1nc(-c2ccc(C(F)(F)F)cc2)nc2c1CSCC2 [XAV939] (first compound 0.004 µM, partner dose 2 µM)",90,57.4,75.9,78.2,85.4,68.7
"Cc1cn(-c2cc(NC(=O)c3ccc(C)c(Nc4nccc(-c5cccnc5)n4)c3)cc(C(F)(F)F)c2)cn1 [nilotinib] + Clc1ccc(Nc2nnc(Cc3ccncc3)c3ccccc23)cc1 [vatalanib] (first compound 0.2 µM, partner dose 2 µM)",108,103,76.8,105,90.8,104
"Cc1cn(-c2cc(NC(=O)c3ccc(C)c(Nc4nccc(-c5cccnc5)n4)c3)cc(C(F)(F)F)c2)cn1 [nilotinib] + CCCCCCCCCCCC1=C(O)C(=O)C=C(O)C1=O [Embelin] (first compound 0.2 µM, partner dose 1.2 µM)",101,110,94.9,96.8,107,93.8
"Cc1cc(Nc2cc(N3CCN(C)CC3)nc(/C=C/c3ccccc3)n2)n[nH]1 + C[C@@H](Oc1cc(-c2cnn(C3CCNCC3)c2)cnc1N)c1c(Cl)ccc(F)c1Cl [Crizotinib] (first compound 0.04 µM, partner dose 0.2 µM)",96.1,104,72.9,82.2,125,99.9
"Cn1c(=O)n(-c2ccc(C(C)(C)C#N)cc2)c2c3cc(-c4cnc5ccccc5c4)ccc3ncc21 + C[C@@H](Oc1cc(-c2cnn(C3CCNCC3)c2)cnc1N)c1c(Cl)ccc(F)c1Cl [Crizotinib] (first compound 0.004 µM, partner dose 0.2 µM)",85.9,105,91.4,99.5,79.4,95.8
"CC(C)C[C@H](NC(=O)[C@H](Cc1ccccc1)NC(=O)c1cnccn1)B(O)O [Bortezomib] + C[C@@H](Oc1cc(-c2cnn(C3CCNCC3)c2)cnc1N)c1c(Cl)ccc(F)c1Cl [Crizotinib] (first compound 0.001 µM, partner dose 0.2 µM)",91.8,24.3,67,61.7,15.1,99
"Cc1cc(Nc2cc(N3CCN(C)CC3)nc(/C=C/c3ccccc3)n2)n[nH]1 + COC(=O)c1sccc1S(=O)(=O)Nc1ccc(Nc2ccccc2)cc1OC [GSK0660] (first compound 0.04 µM, partner dose 1 µM)",103,97.9,95.1,99.4,101,95.6
"Cc1cc(Nc2cc(N3CCN(C)CC3)nc(/C=C/c3ccccc3)n2)n[nH]1 + CCCS(=O)(=O)Nc1ccc(F)c(C(=O)c2c[nH]c3ncc(Cl)cc23)c1F [PLX4720] (first compound 0.04 µM, partner dose 0.08 µM)",87,119,106,71.8,100,111
"CC(C)C[C@H](NC(=O)[C@H](Cc1ccccc1)NC(=O)c1cnccn1)B(O)O [Bortezomib] + O=C(Nc1cccc(Cl)c1)Nc1ncc(CCNc2ncnc3ccsc23)s1 [SNS314] (first compound 0.001 µM, partner dose 0.0008 µM)",74.5,31.8,59.8,75.2,33.1,96.8
"COc1ccc(C2=N[C@@H](c3ccc(Cl)cc3)[C@@H](c3ccc(Cl)cc3)N2C(=O)N2CCNC(=O)C2)c(OC(C)C)c1 [Nutlin-3] + Cn1c(Nc2ccc(C(F)(F)F)cc2)nc2cc(Oc3ccnc(-c4ncc(C(F)(F)F)[nH]4)c3)ccc21 [CHIR265] (first compound 0.1 µM, partner dose 0.08 µM)",54.5,83.7,71.6,71.1,68.3,91.1
"Cn1c(=O)n(-c2ccc(C(C)(C)C#N)cc2)c2c3cc(-c4cnc5ccccc5c4)ccc3ncc21 + COC(=O)c1sccc1S(=O)(=O)Nc1ccc(Nc2ccccc2)cc1OC [GSK0660] (first compound 0.004 µM, partner dose 1 µM)",85.7,85.1,94.6,83.8,82.3,113
